{"source": "the supplement of paper PMC8728848", "assay_in_all_cases": "glycan array binding signal (z-score within array); higher = stronger binding", "details_in_all_cases": "glycan notation: IUPAC condensed, linker removed", "key": {"GalNAc(a1-3)Gal": {"molecular_target": "GalNAc(a1-3)Gal", "outline": "(§1)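 Glycan array data came from 3228 arrays in the Consortium for Functional Glycomics database, and only arrays with an available protein sequence were kept. Glycan names were put into IUPAC-condensed notation, and columns mapping to the same glycan were averaged. The binding signal is a within-array Z-score, averaged across arrays of one protein sequence run at different concentrations or buffers and across linkers. A negative Z-score can be read as non-binding.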"}, "GalNAc(a1-3)GalNAc": {"molecular_target": "GalNAc(a1-3)GalNAc", "outline": "as §1"}, "[1]": {"molecular_target": "GalNAc(a1-3)GalNAc(a1-3)Gal(a1-4)Gal(b1-4)GlcNAc", "outline": "as §1"}, "[2]": {"molecular_target": "GalNAc(a1-3)GalNAc(b1-3)Gal(a1-4)Gal(b1-4)Glc", "outline": "as §1"}, "GalNAc(b1-3)Gal": {"molecular_target": "GalNAc(b1-3)Gal", "outline": "as §1"}, "[3]": {"molecular_target": "GalNAc(b1-3)Gal(a1-4)Gal(b1-4)GlcNAc", "outline": "as §1"}, "[4]": {"molecular_target": "GalNAc(b1-3)Gal(a1-4)Gal(b1-4)GlcNAc(b1-3)Gal(b1-4)Glc", "outline": "as §1"}, "[5]": {"molecular_target": "GalNAc(b1-3)Gal(a1-6)Gal(b1-4)Glc", "outline": "as §1"}, "GalNAc(b1-3)GalNAc": {"molecular_target": "GalNAc(b1-3)GalNAc", "outline": "as §1"}, "GalNAc(b1-3)GlcNAc": {"molecular_target": "GalNAc(b1-3)GlcNAc", "outline": "as §1"}, "GalNAc(b1-4)Gal(b1-4)Glc": {"molecular_target": "GalNAc(b1-4)Gal(b1-4)Glc", "outline": "as §1"}, "GalNAc(b1-4)GlcNAc": {"molecular_target": "GalNAc(b1-4)GlcNAc", "outline": "as §1"}, "[6]": {"molecular_target": "GalNAc(b1-4)GlcNAc(b1-2)Man", "outline": "as §1"}, "[7]": {"molecular_target": "GalNAc(b1-4)GlcNAc(b1-2)Man(a1-3)[GalNAc(b1-4)GlcNAc(b1-2)Man(a1-6)]Man(b1-4)GlcNAc(b1-4)GlcNAc", "outline": "as §1"}, "[8]": {"molecular_target": "GalNAc(b1-4)GlcNAc(b1-3)GalNAc(b1-4)GlcNAc", "outline": "as §1"}, "GalNAc(b1-4)GlcNAc6S": {"molecular_target": "GalNAc(b1-4)GlcNAc6S", "outline": "as §1"}, "GalNAc(b1-6)GalNAc": {"molecular_target": "GalNAc(b1-6)GalNAc", "outline": "as §1"}, "GalNAc3S(b1-4)GlcNAc": {"molecular_target": "GalNAc3S(b1-4)GlcNAc", "outline": "as §1"}, "GalNAc3S(b1-4)GlcNAc3S": {"molecular_target": "GalNAc3S(b1-4)GlcNAc3S", "outline": "as §1"}, "[9]": {"molecular_target": "GalNAc3S(b1-4)[Fuc(a1-3)]GlcNAc", "outline": "as §1"}, "GalNAc4S6S(b1-4)GlcNAc": {"molecular_target": "GalNAc4S6S(b1-4)GlcNAc", "outline": "as §1"}, "GalNAc6S(b1-4)GlcNAc": {"molecular_target": "GalNAc6S(b1-4)GlcNAc", "outline": "as §1"}, "Glc(a1-4)Glc": {"molecular_target": "Glc(a1-4)Glc", "outline": "as §1"}, "[10]": {"molecular_target": "Glc(a1-4)Glc(a1-4)Glc(a1-4)Glc", "outline": "as §1"}, "Glc(a1-6)Glc(a1-6)Glc": {"molecular_target": "Glc(a1-6)Glc(a1-6)Glc", "outline": "as §1"}, "[11]": {"molecular_target": "Glc(a1-6)Glc(a1-6)Glc(a1-6)Glc", "outline": "as §1"}, "Glc(b1-4)Glc": {"molecular_target": "Glc(b1-4)Glc", "outline": "as §1"}, "Glc(b1-6)Glc": {"molecular_target": "Glc(b1-6)Glc", "outline": "as §1"}, "GlcA(b1-3)Gal": {"molecular_target": "GlcA(b1-3)Gal", "outline": "as §1"}, "GlcA(b1-3)GlcNAc": {"molecular_target": "GlcA(b1-3)GlcNAc", "outline": "as §1"}, "GlcA(b1-6)Gal": {"molecular_target": "GlcA(b1-6)Gal", "outline": "as §1"}, "[12]": {"molecular_target": "GlcA3S(b1-3)Gal(b1-4)GlcNAc(b1-2)Man", "outline": "as §1"}, "[13]": {"molecular_target": "GlcA3S(b1-3)Gal(b1-4)GlcNAc(b1-3)Gal(b1-4)Glc", "outline": "as §1"}, "[14]": {"molecular_target": "GlcNAc(a1-3)Gal(b1-4)GlcNAc", "outline": "as §1"}, "[15]": {"molecular_target": "GlcNAc(a1-4)Gal(b1-3)GlcNAc", "outline": "as §1"}, "[16]": {"molecular_target": "GlcNAc(a1-4)Gal(b1-4)GalNAc", "outline": "as §1"}, "[17]": {"molecular_target": "GlcNAc(a1-4)Gal(b1-4)GlcNAc", "outline": "as §1"}}, "note": "The list shows a part of the results."}
{"binder": "UEA-I (Ulex europaeus), P22972 (protein) SDDLSFKFKNFSQNGKDLSFQGDASVIETGVLQLNKVGNNLPDETGGIARYIAPIHIWNCNTGEVASFITSFSFFMETSANPKAATDGLTFFLAPPDSPLRRAGGYFGLFEDTKDNDSSYQTVAVEFDTIGSPVNFDDPGFPHIGIDVNRVKSINAERWNKRYGLNNVANVEIIYEASSKTLTASLTYPSDQTSISVTSIVDLKEILPEWVSVGFSGGTYIGRQATHEVLNWYFTSNLINTNS", "values": [{"measurement": "glycan array binding signal (z-score)", "setting": "GalNAc(a1-3)Gal", "result": -0.235}, {"measurement": "glycan array binding signal (z-score)", "setting": "GalNAc(a1-3)GalNAc", "result": -0.249}, {"measurement": "glycan array binding signal (z-score)", "setting": "[1]", "result": -0.179}, {"measurement": "glycan array binding signal (z-score)", "setting": "[2]", "result": -0.201}, {"measurement": "glycan array binding signal (z-score)", "setting": "GalNAc(b1-3)Gal", "result": -0.183}, {"measurement": "glycan array binding signal (z-score)", "setting": "[3]", "result": -0.117}, {"measurement": "glycan array binding signal (z-score)", "setting": "[4]", "result": -0.168}, {"measurement": "glycan array binding signal (z-score)", "setting": "[5]", "result": -0.21}, {"measurement": "glycan array binding signal (z-score)", "setting": "GalNAc(b1-3)GalNAc", "result": -0.188}, {"measurement": "glycan array binding signal (z-score)", "setting": "GalNAc(b1-3)GlcNAc", "result": -0.248}, {"measurement": "glycan array binding signal (z-score)", "setting": "GalNAc(b1-4)Gal(b1-4)Glc", "result": -0.146}, {"measurement": "glycan array binding signal (z-score)", "setting": "GalNAc(b1-4)GlcNAc", "result": -0.162}, {"measurement": "glycan array binding signal (z-score)", "setting": "[6]", "result": 0.266}, {"measurement": "glycan array binding signal (z-score)", "setting": "[7]", "result": 0.872}, {"measurement": "glycan array binding signal (z-score)", "setting": "[8]", "result": -0.071}, {"measurement": "glycan array binding signal (z-score)", "setting": "GalNAc(b1-4)GlcNAc6S", "result": -0.297}, {"measurement": "glycan array binding signal (z-score)", "setting": "GalNAc(b1-6)GalNAc", "result": -0.272}, {"measurement": "glycan array binding signal (z-score)", "setting": "GalNAc3S(b1-4)GlcNAc", "result": -0.171}, {"measurement": "glycan array binding signal (z-score)", "setting": "GalNAc3S(b1-4)GlcNAc3S", "result": -0.324}, {"measurement": "glycan array binding signal (z-score)", "setting": "[9]", "result": -0.269}, {"measurement": "glycan array binding signal (z-score)", "setting": "GalNAc4S6S(b1-4)GlcNAc", "result": -0.339}, {"measurement": "glycan array binding signal (z-score)", "setting": "GalNAc6S(b1-4)GlcNAc", "result": -0.073}, {"measurement": "glycan array binding signal (z-score)", "setting": "Glc(a1-4)Glc", "result": -0.167}, {"measurement": "glycan array binding signal (z-score)", "setting": "[10]", "result": -0.176}, {"measurement": "glycan array binding signal (z-score)", "setting": "Glc(a1-6)Glc(a1-6)Glc", "result": -0.204}, {"measurement": "glycan array binding signal (z-score)", "setting": "[11]", "result": -0.151}, {"measurement": "glycan array binding signal (z-score)", "setting": "Glc(b1-4)Glc", "result": -0.207}, {"measurement": "glycan array binding signal (z-score)", "setting": "Glc(b1-6)Glc", "result": -0.198}, {"measurement": "glycan array binding signal (z-score)", "setting": "GlcA(b1-3)Gal", "result": -0.197}, {"measurement": "glycan array binding signal (z-score)", "setting": "GlcA(b1-3)GlcNAc", "result": -0.18}, {"measurement": "glycan array binding signal (z-score)", "setting": "GlcA(b1-6)Gal", "result": -0.186}, {"measurement": "glycan array binding signal (z-score)", "setting": "[12]", "result": -0.298}, {"measurement": "glycan array binding signal (z-score)", "setting": "[13]", "result": -0.222}, {"measurement": "glycan array binding signal (z-score)", "setting": "[14]", "result": -0.032}, {"measurement": "glycan array binding signal (z-score)", "setting": "[15]", "result": -0.11}, {"measurement": "glycan array binding signal (z-score)", "setting": "[16]", "result": -0.163}, {"measurement": "glycan array binding signal (z-score)", "setting": "[17]", "result": 0.215}]}
